Results as given in paper PMC7363125.
Numbering of substitutions follows the chain as printed. No constants are given. Whether binding was seen depends on the method and setting. Binding seen in cells or lysates may run through a third protein. Some entries that bind do so weakly or less than the wild type. Where a sequence is shown, tags or fusion partners need not be part of it.

Legend:
Experiment in all cases: pull-down; GST-PDZD11 baits (full-length, truncated, 1-30, mutants; E. coli) on GSH-Sepharose beads, incubated 1 h at 4 °C with insect cell lysate holding full-length PLEKHA7-His; immunoblot with anti-His; only the target purified
[1] = target: T1, GST-PDZD11 N-term 1-30 P16A (human) (UniProt Q5EBL8)
T1 sequence: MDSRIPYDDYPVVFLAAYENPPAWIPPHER

[2] = target: T2, GST-PDZD11 full-length P16,26,27A (human) (UniProt Q5EBL8)
T2 sequence: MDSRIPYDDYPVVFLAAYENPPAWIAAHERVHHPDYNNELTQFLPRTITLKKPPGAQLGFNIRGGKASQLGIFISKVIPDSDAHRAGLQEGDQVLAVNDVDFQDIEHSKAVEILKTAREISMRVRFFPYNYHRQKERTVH

[3] = target: T3, GST-PDZD11 Δ9 (deletion of 9 N-terminal residues of full-length PDZD11) (human) (UniProt Q5EBL8)
T3 sequence: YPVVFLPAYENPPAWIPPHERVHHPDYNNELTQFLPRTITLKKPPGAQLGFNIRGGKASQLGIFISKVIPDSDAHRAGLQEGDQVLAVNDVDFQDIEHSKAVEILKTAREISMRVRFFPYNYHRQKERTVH

[4] = target: T4, GST-PDZD11 Δ14 (deletion of 14 N-terminal residues of full-length PDZD11) (human) (UniProt Q5EBL8)
T4 sequence: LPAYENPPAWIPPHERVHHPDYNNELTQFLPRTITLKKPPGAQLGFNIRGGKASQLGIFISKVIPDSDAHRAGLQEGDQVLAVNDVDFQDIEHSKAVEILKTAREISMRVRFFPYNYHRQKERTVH

[5] = target: T5, GST-PDZD11 N-term 1-30, WT (human) (UniProt Q5EBL8)
T5 sequence: T1 sequence with A16P

[6] = target: T6, GST-PDZD11 N-term 1-30 P26A + P27A (human) (UniProt Q5EBL8)
T6 sequence: T1 sequence with A16P, P26A, P27A

[7] = target: T7, GST-PDZD11 full-length P16A (human) (UniProt Q5EBL8)
T7 sequence: T2 sequence with A26P, A27P

[8] = target: T8, GST-PDZD11 N-term 1-30 P16,26,27A (human) (UniProt Q5EBL8)
T8 sequence: T1 sequence with P26A, P27A

[9] = target: T9, GST-PDZD11 N-term 1-30 P21,22,26,27A (human) (UniProt Q5EBL8)
T9 sequence: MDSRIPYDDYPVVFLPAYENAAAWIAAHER

[10] = target: T10, GST-PDZD11 full-length P21A,P22A (human) (UniProt Q5EBL8)
T10 sequence: T2 sequence with A16P, P21A, P22A, A26P, A27P

[11] = target: T11, GST-PDZD11 N-term 1-30 P16,21,22,26,27A (human) (UniProt Q5EBL8)
T11 sequence: T9 sequence with P16A

[12] = target: T12, GST-PDZD11 full-length P21,22,26,27A (human) (UniProt Q5EBL8)
T12 sequence: T2 sequence with A16P, P21A, P22A

binding [1]: binds
binding [2]: no binding
binding [3]: binds
binding [4]: binds
binding [5]: binds
binding [6]: binds
binding [7]: binds
binding [8]: no binding
binding [9]: no binding
binding [10]: binds
binding [11]: no binding
binding [12]: no binding
B1: PLEKHA7-His, full-length (protein, UniProt Q6IQ23 1-1121)
chain: MAAATVGRDTLPEHWSYGVCRDGRVFFINDQLRCTTWLHPRTGEPVNSGHMIRSDLPRGWEEGFTEEGASYFIDHNQQTTAFRHPVTGQFSPENSEFILQEEPNPHMSKQDRNQRPSSMVSETSTAGTASTLEAKPGPKIIKSSSKVHSFGKRDQAIRRNPNVPVVVRGWLHKQDSSGMRLWKRRWFVLADYCLFYYKDSREEAVLGSIPLPSYVISPVAPEDRISRKYSFKAVHTGMRALIYNSSTAGSQAEQSGMRTYYFSADTQEDMNAWVRAMNQAAQVLSRSSLKRDMEKVERQAVPQANHTESCHECGRVGPGHTRDCPHRGHDDIVNFERQEQEGEQYRSQRDPLEGKRDRSKARSPYSPAEEDALFMDLPTGPRGQQAQPQRAEKNGMLPASYGPGEQNGTGGYQRAFPPRTNPEKHSQRKSNLAQVEHWARAQKGDSRSLPLDQTLPRQGPGQSLSFPENYQTLPKSTRHPSGGSSPPPRNLPSDYKYAQDRASHLKMSSEERRAHRDGTVWQLYEWQQRQQFRHGSPTAPICLGSPEFTDQGRSRSMLEVPRSISVPPSPSDIPPPGPPRVFPPRRPHTPAERVTVKPPDQRRSVDISLGDSPRRARGHAVKNSSHVDRRSMPSMGYMTHTVSAPSLHGKSADDTYLQLKKDLEYLDLKMTGRDLLKDRSLKPVKIAESDTDVKLSIFCEQDRVLQDLEDKIRALKENKDQLESVLEVLHRQMEQYRDQPQHLEKIAYQQKLLQEDLVHIRAELSRESTEMENAWNEYLKLENDVEQLKQTLQEQHRRAFFFQEKSQIQKDLWRIEDVTAGLSANKENFRILVESVKNPERKTVPLFPHPPVPSLSTSESKPPPQPSPPTSPVRTPLEVRLFPQLQTYVPYRPHPPQLRKVTSPLQSPTKAKPKVEDEAPPRPPLPELYSPEDQPPAVPPLPREATIIRHTSVRGLKRQSDERKRDRELGQCVNGDSRVELRSYVSEPELATLSGDMAQPSLGLVGPESRYQTLPGRGLSGSTSRLQQSSTIAPYVTLRRGLNAESSKATFPRPKSALERLYSGDHQRGKMSAEEQLERMKRHQKALVRERKRTLGQGERTGLPSSRYLSRPLPGDLGSVC
